These results are taken from article PMC6162344 (Molecular Cell, 2018).

The target in one assay is CENP-Q (human, UniProt Q7L2Z9 1-268). The assay can be described thus: AUC.
The target of another assay is CENP-LN (human, UniProt Q8N0S6; Q96H22). The assay can be described thus: pull-down.
In a further assay the target is CENP-HI^Δ56KM (human, UniProt Q9H3R5; Q92674; Q9BS16; Q9NSP4). Description: pull-down.

Sequence of CENP-Q (Q7L2Z9 whole entry): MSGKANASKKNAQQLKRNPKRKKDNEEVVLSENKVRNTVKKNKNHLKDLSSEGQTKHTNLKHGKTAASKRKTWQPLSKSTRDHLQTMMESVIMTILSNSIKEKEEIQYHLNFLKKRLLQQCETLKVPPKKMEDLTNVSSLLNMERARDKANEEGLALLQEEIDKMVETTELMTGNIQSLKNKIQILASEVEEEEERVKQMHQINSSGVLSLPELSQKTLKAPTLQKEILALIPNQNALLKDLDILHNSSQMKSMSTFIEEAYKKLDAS

B1: CENP-U (natural protein)
chain: not shown
A word on the stoichiometry N: it is the number of molecules, sites or subunits per partner or assembly. For B1, in the assay with CENP-Q, the “stoichiometry N” value was 1.

B2: CENP-C^[…]-SNAP (domain or fragment)
chain: not shown
modifications: biotinylated benzylguanin (Snap-biotin) on the SNAP tag
For the molecule B2, the binding result in the assay with CENP-LN and with CENP-HI^Δ56KM was “binds” each time.
